For 18 molecules, enrichment score results are on record in the supplement of paper PMC10369915.

First the molecules themselves.
B1: NYX_Y284 (peptide)
chain: ELELLYLDRNS
B2: OAT_Y50_Y55H_YF (peptide)
chain: EREFKYGAHNH
B3: OAT_Y85 (peptide)
chain: DFLSSYSAVNQ
B4: OAT_Y50_G51D (peptide)
chain: EREYKYDAHNY
B5: NTRK1_Y701 (peptide)
chain: PESILYRKFTT
B6: NUBPL_Y109 (peptide)
chain: LDVDVYGPSVP
B7: OAT_Y55_G51D (peptide)
chain: YDAHNYHPLPV
B8: OAT_Y50_Y55H (peptide)
chain: EREYKYGAHNH
B9: NTRK1_Y676_D674Y_YF (peptide)
chain: MSRFIYSTDFF
B10: NVL_Y290_V295I (peptide)
chain: RHPEVYHHLGI
B11: OAS1_Y362_YF (peptide)
chain: DDPRRYQKFGF
B12: NTRK2_Y706_Y706C (peptide)
chain: VYSTDCYRVGG
B13: NUP160_Y773_YF (peptide)
chain: PLLLSYFLIKW
B14: NUP153_Y382_V381F (peptide)
chain: TNRSFYFKPSL
B15: NTRK2_Y707_YF (peptide)
chain: FSTDFYRVGGH
B16: NUP153_Y382 (peptide)
chain: TNRSVYFKPSL
B17: OAT_Y158_R154L (peptide)
chain: ALKWGYTVKGI
B18: NTRK2_Y702_Y706C_YF (peptide)
chain: MSRDVYSTDCF

Some of the results follow. No stated cut-off is given here; in the data, active = 3.2 or more and inactive = the rest. The signal is at background level for most entries.
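Further: displayed peptides selected on beads carrying the immobilized SH2 domain, with library peptides lacking any tyrosine serving as negative controls.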

The target of the first assay is SHP2 C-SH2 domain E139D. In words: enrichment score (SH2-bound / input frequency) (ratio); bacterial display of known human phosphotyrosine sites (pTyr-Var adds point mutants) read by sequencing; higher = stronger binding; tyrosines were phosphorylated by kinases first. As to conditions: peptide library: pTyr-Var.
B1: the enrichment score is inactive: 0.901.

Regarding B2, the enrichment score is inactive: 1.52.

Turning to B3, the enrichment score is inactive: 1.2.

With B4, the enrichment score was inactive: 0.658.

As to B5, the enrichment score was inactive: 0.392.

Regarding B6, the enrichment score was inactive: 1.11.

As to B7, the enrichment score is inactive: 0.834.

Regarding B8, the enrichment score was inactive: 1.62.

B9: the enrichment score is inactive: 1.91.

As for B10, the enrichment score was inactive: 3.04.

B11: the enrichment score is inactive: 0.596.

Regarding B12, the enrichment score was inactive: 0.792.

With B13, the enrichment score was inactive: 2.59.

For the molecule B14, the enrichment score was inactive: 0.946.

Consider B15, for which the enrichment score is inactive: 0.965.

Turning to B16, the enrichment score is inactive: 0.93.

As for B17, the enrichment score was inactive: 1.5.

On to B18, for which the enrichment score is inactive: 0.767.

The target of a further assay is SHP2 C-SH2 domain wild-type. Described as above. The note with it: peptide library: pTyr-Var.
Take B1: the enrichment score is inactive: 0.555.

With B2, the enrichment score is inactive: 1.07.

As for B3, the enrichment score is inactive: 1.68.

As to B4, the enrichment score was inactive: 0.568.

Turning to B5, the enrichment score was inactive: 0.358.

As for B6, the enrichment score was inactive: 0.694.

Consider B7, for which the enrichment score is inactive: 0.598.

Regarding B8, the enrichment score is inactive: 1.32.

Consider B9, for which the enrichment score is inactive: 1.78.

As for B10, the enrichment score is inactive: 2.1.

Regarding B11, the enrichment score was inactive: 0.575.

With B12, the enrichment score was inactive: 0.991.

On to B13, for which the enrichment score is inactive: 2.27.

In the case of B14, the enrichment score was inactive: 0.779.

With B15, the enrichment score is inactive: 0.703.

Turning to B16, the enrichment score was inactive: 1.59.

Consider B17, for which the enrichment score was inactive: 1.38.

On to B18, for which the enrichment score is inactive: 0.797.

In a further assay the target is SHP2 N-SH2 domain L43F. Described as above. As to conditions: peptide library: pTyr-Var.
Turning to B1, the enrichment score was inactive: 0.795.

Regarding B2, the enrichment score is inactive: 0.855.

For B3, the enrichment score was inactive: 0.959.

Take B4: the enrichment score is inactive: 0.557.

For the molecule B5, the enrichment score is inactive: 0.428.

As to B6, the enrichment score is inactive: 1.12.

Consider B7, for which the enrichment score was inactive: 0.65.

For B8, the enrichment score is inactive: 1.59.

With B9, the enrichment score was inactive: 1.88.

As to B10, the enrichment score is inactive: 2.91.

B11: the enrichment score was inactive: 0.534.

Take B12: the enrichment score was inactive: 0.749.

Take B13: the enrichment score is inactive: 3.07.

B14: the enrichment score was inactive: 0.692.

With B15, the enrichment score is inactive: 0.773.

For the molecule B16, the enrichment score was inactive: 0.967.

As for B17, the enrichment score was inactive: 1.65.

For the molecule B18, the enrichment score is inactive: 0.681.

For a further assay, the target named is SHP2 N-SH2 domain T42A. The assay is described as above. The note with it: peptide library: pTyr-Var.
Take B1: the enrichment score was inactive: 0.692.

As to B2, the enrichment score is inactive: 1.14.

B3: the enrichment score is inactive: 0.694.

With B4, the enrichment score was inactive: 0.654.

In the case of B5, the enrichment score was inactive: 0.5.

Turning to B6, the enrichment score is inactive: 0.679.

On to B7, for which the enrichment score was inactive: 0.502.

For B8, the enrichment score is inactive: 1.21.

As to B9, the enrichment score was inactive: 1.78.

B10: the enrichment score is inactive: 2.22.

With B11, the enrichment score was inactive: 0.493.

Regarding B12, the enrichment score is inactive: 0.737.

As for B13, the enrichment score is inactive: 2.32.

For B14, the enrichment score was inactive: 1.79.

Take B15: the enrichment score is inactive: 1.04.

Take B16: the enrichment score was inactive: 2.91.

For B17, the enrichment score was inactive: 1.59.

On to B18, for which the enrichment score is inactive: 0.731.

Another assay addresses SHP2 N-SH2 domain T52S. The description is as above. The note with it: peptide library: pTyr-Var.
As to B1, the enrichment score is inactive: 0.905.

B2: the enrichment score is inactive: 1.43.

Take B3: the enrichment score was inactive: 0.982.

B4: the enrichment score was inactive: 0.603.

On to B5, for which the enrichment score is inactive: 0.549.

With B6, the enrichment score is inactive: 0.665.

For B7, the enrichment score is inactive: 0.678.

Turning to B8, the enrichment score is inactive: 1.87.

With B9, the enrichment score was inactive: 1.82.

For the molecule B10, the enrichment score is inactive: 2.92.

For the molecule B11, the enrichment score was inactive: 0.488.

Consider B12, for which the enrichment score was inactive: 0.672.

For the molecule B13, the enrichment score was inactive: 2.62.

B14: the enrichment score was inactive: 0.785.

For the molecule B15, the enrichment score was inactive: 0.888.

In the case of B16, the enrichment score is inactive: 1.16.

Regarding B17, the enrichment score is inactive: 1.29.

Regarding B18, the enrichment score was inactive: 0.638.

Another assay deals with SHP2 N-SH2 domain wild-type. The assay is described as above. As to conditions: peptide library: pTyr-Var.
B1: the enrichment score was inactive: 0.881.

As to B2, the enrichment score is inactive: 1.11.

Turning to B3, the enrichment score is inactive: 0.901.

In the case of B4, the enrichment score was inactive: 0.943.

In the case of B5, the enrichment score is inactive: 0.247.

Turning to B6, the enrichment score was inactive: 0.944.

For the molecule B7, the enrichment score is inactive: 0.833.

Regarding B8, the enrichment score was inactive: 1.23.

As to B9, the enrichment score was inactive: 1.71.

Consider B10, for which the enrichment score is inactive: 2.9.

For the molecule B11, the enrichment score was inactive: 0.818.

As to B12, the enrichment score is inactive: 1.03.

As for B13, the enrichment score is inactive: 2.95.

On to B14, for which the enrichment score was inactive: 0.769.

On to B15, for which the enrichment score is inactive: 0.832.

For B16, the enrichment score was inactive: 0.767.

As to B17, the enrichment score is inactive: 1.75.

Regarding B18, the enrichment score is inactive: 0.798.
